Source: publication PMC9880526, “A novel assay that characterizes properdin function shows neutrophil-derived properdin has a distinct oligomeric distribution” (Frontiers in Immunology, 2022)

Biological target: the molecule itself
Assay: cell-based or functional assay

B1: neutrophil-derived properdin (natural protein, UniProt P27918 28-469, looked up)
chain: DPVLCFTQYEESSGKCKGLLGGGVSVEDCCLNTAFAYQKRSGGLCQPCRSPRWSLWSTWAPCSVTCSEGSQLRYRRCVGWNGQCSGKVAPGTLEWQLQACEDQQCCPEMGGWSGWGPWEPCSVTCSKGTRTRRRACNHPAPKCGGHCPGQAQESEACDTQQVCPTHGAWATWGPWTPCSASCHGGPHEPKETRSRKCSAPEPSQKPPGKPCPGLAYEQRRCTGLPPCPVAGGWGPWGPVSPCPVTCGLGQTMEQRTCNHPVPQHGGPFCAGDATRTHICNTAVPCPVDGEWDSWGEWSPCIRRNMKSISCQEIPGQQSRGRTCRGRKFDGHRCAGQQQDIRHCYSIQHCPLKGSWSEWSTWGLCMPPCGPNPTRARQRLCTPLLPKYPPTVSMVEGQGEKNVTFWGRPLPRCEELQGQKLVVEEKRPCLHVPACKDPEEEEL
C3b deposition in the properdin functional ELISA at 300 ng/ml properdin, neutrophil-derived against donor-matched serum-derived properdin (10 donors): 5 fold lower
